Assay results taken from the supplement of paper PMC11417369.
This is one part of the list.

tested on: PfAP2-HC AP2 domain (GST-tagged); assay: gcPBM binding intensity (ln(normalized median fluorescence intensity)); higher = stronger DNA binding
Summary of the method: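 Binding intensity is defined as the maximum Masliner-normalised natural-log median intensity across replicate spots for either probe orientation. It was measured on an Agilent 4 × 180k array of primer-extended double-stranded 36-bp intergenic genomic probes and negative controls, to which GST-tagged P. falciparum DNA-binding domains made in E. coli were applied for 1 h in 1× PBS with 1% milk, 0.2 mg/ml BSA, 0.5% salmon testes DNA and 0.03% Triton X-100. Detection was by Alexa488 anti-GST antibody and scanning at 488 nm.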

Sequence	gcPBM binding intensity (ln)
ATTTATATAAAGAATGTACACACAGAAATGCACCCA [CACACA_site8715]	10
CGTATGCACAAATTATGTACTTATATATATATATAT [XGTACX_site2348]	9.69
TAAATATATATATGTGTGCACTTCTTCATTTTAATA [GTGCAC_site9537]	9.89
AAAAAAAAAAAACATACACACAAATAAATACATACA [CACACA_site6073]	10.1
CGGCACATTATATATACACACATATAAATAAATACA [CACACA_site4477]	9.8
TATATATATAAGTGCACACTGAACCAAGAAAATTAT [CACACA_site3008]	10
GGATTGATAAGTGGTACACACATATAGATTATAGAT [CACACA_site7367]	9.93
CCATCTAAACACAACTCGAGTTGGATGTGTGAACTT [XGTACX_negctrl_site83]	9.85
ATATATATATATATATGTACATATTTCTCCATTTTT [XGTACX_site2869]	9.62
CATATTTTTATAAATTGTACGTATATTATATATATA [XGTACX_site1816]	9.58
AAACCGTGGGAGCACACACACACACCGACACATATA [CACACA_site4338]	10.4
GTTTTTTATAATTGTAGTACAAGAAGATATTTTTAT [XGTACX_site5443]	9.49
TGCAATTGTAAAGGCGCACACATATATATATATATA [CACACA_site4894]	10.7
ATATATCAATATAAAAGTACAAACAAAAAATAATCA [XGTACX_site7559]	9.89
GATATATACTCCATCACACACCAAAAAGAAAAAAGA [CACACA_site7242]	9.93
ATCAAAAGAAAACACACACACATACAGATATATATA [CACACA_site5974]	11.2
TCCATTTATAAATTAGCATGCAATCTATGTCTGATA [TGCATGCA_site1045]	9.41
AATTAATGGGTACATACACACATATATACCTACATA [CACACA_site4572]	10
CATATAAAAAATATGGTGCAGTTTTTTTTTTTTTTT	9.61
TATATATATAATGTTTGTACATATTAAATATATATG [XGTACX_site407]	9.44
TAAATATTTTTATGGGTGCGTTCTTTAGCGCAATTT	9.38
TTTTGCAATAATGTTGCACACTAAATAGTCATATAT [CACACA_site7977]	9.73
TTTATATTGATATATACACACATATACATCCTATTT [CACACA_site7442]	10.1

Sequence	gcPBM binding intensity (ln)
ATTATTGTTGTTCATGTACACACTATAATAAAAGCA [CACACA_site4168]	9.68
ATTAATTATTTCAATGCATGTGAACACTATATATAA [TGCATGCA_site600]	9.7
AAAAAAAGTTGATACTGTACTCGTGCATTATGAATA [XGTACX_site5558]	9.87
CTTATTAAAATTATTTGTACACAATATGTAAAAGTA [XGTACX_site7237]	9.44
TAATTAAAATTATCTACACACCTTTATAAATATATA [CACACA_site3928]	9.6
AGGTATTTTCTTGTGACACACATATATATATATATT [CACACA_site2220]	10.1
TTGTATATTATATGTACACACAATAAGTTAATATAA [CACACA_site909]	9.75
TTCCTTTGTCCTAACTGTACTCAAATTTATTAGTGG [XGTACX_site226]	9.59
ATAATATATTTTTGAACACACAATATAGATTTATAT [CACACA_site7857]	9.59
TATTCGAAAATTATTCAAATTATCTAACATATTATT [TGCATGCA_negctrl_site70]	9.19
AAAAATAAAATAATATGTACATATATAATATATATA [XGTACX_site4786]	9.82
TAATTTTTTAGACACACACACATATAAATATAAATA [CACACA_site6195]	10.8
AATTGGAAACAACCAAAAAAATTAAAGTTGTATCCT [CACACA_negctrl_site565]	9.42
TAAATGAAAACCATTAGTACTTATACTGATAAATGT [XGTACX_site763]	9.64
TATATCTTAATATACACACACACATATATATATATA [CACACA_site4968]	10
TATATAAATATATATACACACAAAAAAAAAAAAAAA [CACACA_site1406]	9.68
TAAATACAAAAATGTACACACATATATATATTTTTA [CACACA_site3503]	9.81
TAAATTTTAATATGCACACAAAATGTTATATTAAAA [CACACA_site4366]	9.58
CGGCACATTATATATACACACATATAAATATATACA [CACACA_site8086]	9.72
AATAAAATATACTATTGTACATATGGAACTACTTGA [XGTACX_site8928]	9.71
TTGTTTTTAGTTTATACACACCATATTAAAATAATG [CACACA_site5675]	9.74
ATTTATTATATATAGTGTACGTTCTTAATTATAATT [XGTACX_site7480]	9.69
TAAAATATATTGCCAGTGCATAATATATGTAATTAT	9.63

Sequence	gcPBM binding intensity (ln)
TTTTTTAAATATTAAAAATGGGATCTTATAACATAT [GTGCAC_negctrl_site666]	9.28
TGTATAAACCCACGTACACACACTAAGTATATCCAA [CACACA_site1605]	10.3
AACTAATAAAAAAAAAAAACATTAAACAGGACAAAT [XGTACX_negctrl_site287]	9.79
TAAACAAATAAATAAACACACAATATAGGTATATAT [CACACA_site7739]	9.98
TTATTTTTAACGTACGCACACATATAAATATATTTA [CACACA_site1976]	9.82
TTGTATTACATAAATGTTCTTTATTATTTGATAAAA [CACACA_negctrl_site903]	9.35
TATATAATATATTAATGTACTTAAAATATATTCTAT [XGTACX_site1235]	9.57
GTGTAGTTAAAAAAAAGTACAGATTTTTTTTTTTTT [XGTACX_site849]	9.44
AAAAAAAAAAAAACAAGTACAAAGGATAGAAAAAAA [XGTACX_site4133]	9.82
ATAGAATATTGATATTGTACGTTATCTTAAAACAAT [XGTACX_site1702]	9.53
ATAAGAACGTCTATGTGTACGCAGCAAAACTGAGTT [XGTACX_site6385]	9.63
TTCTCAAAGAAGAAAAAGTTTTTTTAATTTTTCTTT [XGTACX_negctrl_site543]	9.32
AACCAATTATATTTACGTACGTACGGTTTTTTATAT [XGTACX_site1291]	10.1
AATAAAAAATATAACACAAATATGTATATATATATA [TGCATGCA_negctrl_site245]	9.81
ACATATAAAATGTATACACACAAATATTACATATAT [CACACA_site1472]	10
CAAAAAAAAAAAAAAAATAAATAAAGGAAATAAAAA [CACACA_negctrl_site20]	9.33
AATATATTTTTTTTTTGTACATATTGTAAAATAATA [XGTACX_site6805]	9.45
ATATATTAATATACTCGTACATATTCTTATTGTGTA [XGTACX_site3728]	9.71
TATATATATTTCCAGTGTACTTATTTTTTAATCAAT [XGTACX_site8220]	9.55
TCCTCAAAAAAATAAAATAATTTATACTTTTTTAAA [GTGCAC_negctrl_site724]	9.38
CACATTTAGAAATAGTTTTATTTTGTATATTCTATT [CACACA_negctrl_site1382]	9.65
TATACATTTATGTACACACACATATCTGTATATTTA [CACACA_site5617]	10.1
TTTTGTATATATCACATTAAAAGAAAAAAATATATG [GTGCAC_negctrl_site120]	9.37

Sequence	gcPBM binding intensity (ln)
GTATGTGTATGTGTATGTACATATGTATGTATAAAA [XGTACX_site8191]	9.89
AATTAGACATAATATACACACATATATTATATATAT [CACACA_site2691]	9.93
TTCAAAAGATATATCGTGCACATATATATGATGAAA	9.77
ATTTTTTTGGAATTCACACACAAAAAAAAAAATAAA [CACACA_site2081]	9.83
ATGTTGAGTATATATACACACATACAGATATATATA [CACACA_site4967]	9.82
TAGGTATATAAATAATGTACATATAAACTATATAGA [XGTACX_site2597]	9.74
TCCACACAATTTATAACATGCAAAAAGGCAATAATA [TGCATGCA_site773]	9.57
TGGAGATAAAATAAAACACACACATATATATATATA [CACACA_site8683]	9.9
ATACATTCTTATTACTGTACAGGGTTAATTATTTGT [XGTACX_site948]	9.74
ATTATTTTATTTATTGGTACGTAATTGTAGATTTCT [XGTACX_site3697]	9.63
GCAAAAACAAACGTCACACATACAAAGGCCGTGTAA [CACACA_site6043]	9.85
TTCGCCCTAAATAGAGTGCATTATATATATTAATAT	9.65
TTCCAACCAATACAAACATGCATTTGAAAAAATGTA [TGCATGCA_site119]	9.55
ATAAAATAAATATAACCACACACGAAAGAGAGAGAA [CACACA_site9075]	10.2
TTTTTAGGAAAGGCGGCACACATTTATATATTTATT [CACACA_site3672]	9.81
AGCAGTCAGCAGGACAGTACACAGTAGCCAGTAACT [XGTACX_site1999]	9.53
TTTATTTTATCATTTGCACACGCACGCCCACATAAA [CACACA_site353]	9.86
CAAAATATATTGAATTGTACATAAAAATAAAAATTA [XGTACX_site4193]	9.62
CATATAAAAGGACACACACACACATATATATATATA [CACACA_site4674]	11.6
TATTTTATTTTTTGTTGTACATATATATTATATATA [XGTACX_site4513]	9.77
